# Measured values: the supplement of paper PMC8728848
# Some of the results follow.
# What was measured:
# Assay in all cases: glycan array binding signal (z-score within array); higher = stronger binding
# Conditions in all cases: glycan notation: IUPAC condensed, linker removed
# GlcNAc(b1-3)GalNAc = target: GlcNAc(b1-3)GalNAc
# In short: (§1)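 Arrays were curated from the Consortium for Functional Glycomics database, 3228 in total, and kept only where the protein sequence was available. Binding is expressed as a within-array Z-score. This score was averaged across arrays of the same protein sequence at different concentrations or buffers and across linkers, and negative values can be read as non-binding.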
# GlcNAc(b1-3)Man = target: GlcNAc(b1-3)Man
# In short: as §1
# [1] = target: GlcNAc(b1-3)[GlcNAc(b1-4)][GlcNAc(b1-6)]GlcNAc
# In short: as §1
# [2] = target: GlcNAc(b1-3)[GlcNAc(b1-6)]Gal(b1-4)GlcNAc
# In short: as §1
# [3] = target: GlcNAc(b1-3)[GlcNAc(b1-6)]GalNAc
# In short: as §1
# [4] = target: GlcNAc(b1-4)Gal(b1-4)GlcNAc
# In short: as §1
# GlcNAc(b1-4)GlcNAc = target: GlcNAc(b1-4)GlcNAc
# In short: as §1
# [5] = target: GlcNAc(b1-4)GlcNAc(b1-4)GlcNAc
# In short: as §1
# [6] = target: GlcNAc(b1-4)GlcNAc(b1-4)GlcNAc(b1-4)GlcNAc(b1-4)GlcNAc
# In short: as §1
# [7] = target: GlcNAc(b1-4)GlcNAc(b1-4)GlcNAc(b1-4)GlcNAc(b1-4)GlcNAc(b1-4)GlcNAc
# In short: as §1
# [8] = target: GlcNAc(b1-4)[GlcNAc(b1-6)]GalNAc
# In short: as §1
# [9] = target: GlcNAc(b1-6)Gal(b1-4)GlcNAc
# In short: as §1
# GlcNAc(b1-6)GalNAc = target: GlcNAc(b1-6)GalNAc
# In short: as §1
# [10] = target: GlcNAc6S(b1-3)Gal(b1-4)GlcNAc
# In short: as §1
# Kdn(a2-3)Gal(b1-3)GalNAc = target: Kdn(a2-3)Gal(b1-3)GalNAc
# In short: as §1
# Kdn(a2-3)Gal(b1-3)GlcNAc = target: Kdn(a2-3)Gal(b1-3)GlcNAc
# In short: as §1
# Kdn(a2-3)Gal(b1-4)Glc = target: Kdn(a2-3)Gal(b1-4)Glc
# In short: as §1
# Kdn(a2-3)Gal(b1-4)GlcNAc = target: Kdn(a2-3)Gal(b1-4)GlcNAc
# In short: as §1
# [11] = target: Kdn(a2-3)Gal(b1-4)[Fuc(a1-3)]GlcNAc
# In short: as §1
# Kdn(a2-6)Gal(b1-4)GlcNAc = target: Kdn(a2-6)Gal(b1-4)GlcNAc
# In short: as §1
# [12] = target: Man(a1-2)Man(a1-2)Man(a1-3)Man
# In short: as §1
# [13] = target: Man(a1-2)Man(a1-2)Man(a1-6)[Man(a1-3)]Man
# In short: as §1
# Man(a1-2)Man(a1-3)Man = target: Man(a1-2)Man(a1-3)Man
# In short: as §1
# [14] = target: Man(a1-2)Man(a1-3)[Man(a1-2)Man(a1-6)]Man
# In short: as §1
# [15] = target: Man(a1-2)Man(a1-3)[Man(a1-2)Man(a1-6)]Man(a1-6)[Man(a1-2)Man(a1-2)Man(a1-3)]Man
# In short: as §1
# [16] = target: Man(a1-2)Man(a1-3)[Man(a1-2)Man(a1-6)]Man(a1-6)[Man(a1-2)Man(a1-2)Man(a1-3)]Man(b1-4)GlcNAc(b1-4)GlcNAc
# In short: as §1
# [17] = target: Man(a1-2)Man(a1-3)[Man(a1-6)]Man(a1-6)[Man(a1-2)Man(a1-3)]Man(b1-4)GlcNAc(b1-4)GlcNAc
# In short: as §1
# [18] = target: Man(a1-2)Man(a1-6)[Man(a1-3)]Man(a1-6)[Man(a1-2)Man(a1-2)Man(a1-3)]Man
# In short: as §1
# [19] = target: Man(a1-2)Man(a1-6)[Man(a1-3)]Man(a1-6)[Man(a1-2)Man(a1-2)Man(a1-3)]Man(b1-4)GlcNAc(b1-4)GlcNAc
# In short: as §1
# Man(a1-3)[Man(a1-6)]Man = target: Man(a1-3)[Man(a1-6)]Man
# In short: as §1
# [20] = target: Man(a1-3)[Man(a1-6)]Man(a1-6)[Man(a1-2)Man(a1-3)]Man(b1-4)GlcNAc(b1-4)GlcNAc
# In short: as §1
# [21] = target: Man(a1-3)[Man(a1-6)]Man(a1-6)[Man(a1-3)]Man
# In short: as §1
# [22] = target: Man(a1-3)[Man(a1-6)]Man(a1-6)[Man(a1-3)]Man(b1-4)GlcNAc(b1-4)GlcNAc
# In short: as §1
# [23] = target: Man(a1-3)[Man(a1-6)]Man(b1-4)GlcNAc(b1-4)GlcNAc
# In short: as §1
# [24] = target: Man(a1-3)[Man(a1-6)]Man(b1-4)GlcNAc(b1-4)[Fuc(a1-6)]GlcNAc
# In short: as §1
# Man(a1-6)Man = target: Man(a1-6)Man
# In short: as §1
# Man(b1-4)GlcNAc = target: Man(b1-4)GlcNAc
# In short: as §1
# MurNAc(b1-4)GlcNAc = target: MurNAc(b1-4)GlcNAc
# In short: as §1
binder,measurement,setting,value
Epa1 (Candida glabrata) (protein) MGSSHHHHHHSSGLVPRGSHMTSSNDISLASKDPTTFPLGCSPDITTPKKGLSMELYSYDFRKKGSYPCWDAAYLDPNYPRTGYKSHRLLAKVDGVTGNINFYYHATKGCTPQLGHLPASYNYPKPLTMTNFTMLLYGYFRPKVTGFHTFTISADDLLFVNFGAGNAFDCCRRDSSADHFGNYQAYAIWGSKTAKDELTVHLDAGVYYPIRLFYNNREYDGALSFTFKTESNENTVSDFSEYFFSLDDTEEGCPGLISYD,glycan array binding signal (z-score),GlcNAc(b1-3)GalNAc,-0.297
same,glycan array binding signal (z-score),GlcNAc(b1-3)Man,-0.267
same,glycan array binding signal (z-score),[1],-0.326
same,glycan array binding signal (z-score),[2],-0.269
same,glycan array binding signal (z-score),[3],-0.296
same,glycan array binding signal (z-score),[4],-0.332
same,glycan array binding signal (z-score),GlcNAc(b1-4)GlcNAc,-0.336
same,glycan array binding signal (z-score),[5],-0.365
same,glycan array binding signal (z-score),[6],-0.305
same,glycan array binding signal (z-score),[7],-0.339
same,glycan array binding signal (z-score),[8],-0.302
same,glycan array binding signal (z-score),[9],1.23
same,glycan array binding signal (z-score),GlcNAc(b1-6)GalNAc,-0.326
same,glycan array binding signal (z-score),[10],1.46
same,glycan array binding signal (z-score),Kdn(a2-3)Gal(b1-3)GalNAc,-0.296
same,glycan array binding signal (z-score),Kdn(a2-3)Gal(b1-3)GlcNAc,-0.225
same,glycan array binding signal (z-score),Kdn(a2-3)Gal(b1-4)Glc,-0.22
same,glycan array binding signal (z-score),Kdn(a2-3)Gal(b1-4)GlcNAc,-0.284
same,glycan array binding signal (z-score),[11],-0.196
same,glycan array binding signal (z-score),Kdn(a2-6)Gal(b1-4)GlcNAc,-0.227
same,glycan array binding signal (z-score),[12],-0.34
same,glycan array binding signal (z-score),[13],-0.25
same,glycan array binding signal (z-score),Man(a1-2)Man(a1-3)Man,-0.318
same,glycan array binding signal (z-score),[14],-0.366
same,glycan array binding signal (z-score),[15],-0.347
same,glycan array binding signal (z-score),[16],-0.32
same,glycan array binding signal (z-score),[17],-0.344
same,glycan array binding signal (z-score),[18],-0.399
same,glycan array binding signal (z-score),[19],-0.334
same,glycan array binding signal (z-score),Man(a1-3)[Man(a1-6)]Man,-0.212
same,glycan array binding signal (z-score),[20],-0.281
same,glycan array binding signal (z-score),[21],-0.324
same,glycan array binding signal (z-score),[22],-0.273
same,glycan array binding signal (z-score),[23],-0.318
same,glycan array binding signal (z-score),[24],-0.271
same,glycan array binding signal (z-score),Man(a1-6)Man,-0.267
same,glycan array binding signal (z-score),Man(b1-4)GlcNAc,-0.281
same,glycan array binding signal (z-score),MurNAc(b1-4)GlcNAc,-0.328
